# Reference: the supplement of paper PMC8728848
# Only a selection was taken, and the strongest signals are over-represented in it overall.
# B1: Avaren-Fc (Actinomycete K97) (protein)
# chain: ASGTIRNAETGRCLDSNYNGNVYTLPCNGGNYQRWTGPGDGTVRNAETGRCLDSNYDGAVYTLPCNGGSYQKWTGPGDGTIQNAETGRCLDSNYNGNVYTLPCNGGNYQKWTGGGGSV[in this place human IgG1 Fc with changes]
# Experiments:
# Experiment in all cases: glycan array binding signal (z-score within array); higher = stronger binding
# Details in all cases: glycan notation: IUPAC condensed, linker removed
# [1] = molecular target: Fuc(a1-2)Gal(b1-3)GlcNAc(b1-2)Man(a1-3)[Fuc(a1-2)Gal(b1-3)GlcNAc(b1-2)Man(a1-6)]Man(b1-4)GlcNAc(b1-4)[Fuc(a1-6)]GlcNAc
# Outline: (§1)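 From the Consortium for Functional Glycomics database, 3228 arrays were curated, keeping only those whose protein sequence was available. Binding is given as a within-array Z-score averaged across arrays sharing a protein sequence and across linkers. Negative Z-scores can be read as non-binding.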
# [2] = molecular target: Fuc(a1-2)Gal(b1-3)[Fuc(a1-4)]GlcNAc
# Outline: as §1
# [3] = molecular target: Fuc(a1-2)Gal(b1-3)[Fuc(a1-4)]GlcNAc(b1-3)[Gal(b1-4)GlcNAc(b1-6)]Gal(b1-4)Glc
# Outline: as §1
# [4] = molecular target: Fuc(a1-2)Gal(b1-4)Glc
# Outline: as §1
# [5] = molecular target: Fuc(a1-2)Gal(b1-4)GlcNAc(b1-2)Man(a1-3)[Fuc(a1-2)Gal(b1-4)GlcNAc(b1-2)Man(a1-6)]Man(b1-4)GlcNAc(b1-4)[Fuc(a1-6)]GlcNAc
# Outline: as §1
# [6] = molecular target: Fuc(a1-2)Gal(b1-4)GlcNAc(b1-3)GalNAc
# Outline: as §1
# [7] = molecular target: Fuc(a1-2)Gal(b1-4)GlcNAc(b1-3)[Fuc(a1-3)[Gal(b1-4)]GlcNAc(b1-6)]Gal(b1-4)Glc
# Outline: as §1
# [8] = molecular target: Fuc(a1-2)Gal(b1-4)[Fuc(a1-3)]GlcNAc(b1-2)[Fuc(a1-2)Gal(b1-4)[Fuc(a1-3)]GlcNAc(b1-4)]Man(a1-3)[Fuc(a1-2)Gal(b1-4)[Fuc(a1-3)]GlcNAc(b1-2)Man(a1-6)]Man(b1-4)GlcNAc(b1-4)GlcNAc
# Outline: as §1
# [9] = molecular target: Fuc(a1-2)Gal(b1-4)[Fuc(a1-3)]GlcNAc(b1-3)GalNAc
# Outline: as §1
# [10] = molecular target: Fuc(a1-2)[Gal(a1-3)]Gal(b1-3)GalNAc(b1-3)Gal(a1-4)Gal(b1-4)Glc
# Outline: as §1
# [11] = molecular target: Fuc(a1-2)[Gal(a1-3)]Gal(b1-3)GlcNAc(b1-2)Man(a1-3)[Fuc(a1-2)[Gal(a1-3)]Gal(b1-3)GlcNAc(b1-2)Man(a1-6)]Man(b1-4)GlcNAc(b1-4)[Fuc(a1-6)]GlcNAc
# Outline: as §1
# [12] = molecular target: Fuc(a1-2)[Gal(a1-3)]Gal(b1-4)GlcNAc(b1-3)[Fuc(a1-2)[Gal(a1-3)]Gal(b1-4)GlcNAc(b1-6)]GalNAc
# Outline: as §1
# [13] = molecular target: Fuc(a1-2)[Gal(a1-3)]Gal(b1-4)[Fuc(a1-3)]GlcNAc(b1-3)GalNAc
# Outline: as §1
# [14] = molecular target: Fuc(a1-2)[GalNAc(a1-3)]Gal(b1-3)GlcNAc
# Outline: as §1
# [15] = molecular target: Gal(a1-3)Gal(b1-3)GlcNAc(b1-6)GalNAc
# Outline: as §1
# [16] = molecular target: Gal(a1-3)Gal(b1-3)[Fuc(a1-4)]GlcNAc(b1-2)Man(a1-3)[Gal(a1-3)Gal(b1-3)[Fuc(a1-4)]GlcNAc(b1-2)Man(a1-6)]Man(b1-4)GlcNAc(b1-4)GlcNAc
# Outline: as §1
# [17] = molecular target: Gal(a1-4)GlcNAc
# Outline: as §1
# [18] = molecular target: Gal(b1-2)Gal
# Outline: as §1
# [19] = molecular target: Gal(b1-3)GalNAc(a1-3)[Fuc(a1-2)]Gal(b1-4)Glc
# Outline: as §1
# [20] = molecular target: Gal(b1-3)GalNAc(b1-3)Gal
# Outline: as §1
# [21] = molecular target: Gal(b1-3)GalNAc(b1-4)Gal(b1-4)Glc
# Outline: as §1
# [22] = molecular target: Gal(b1-3)GlcNAc(b1-2)Man(a1-3)[GlcNAc(b1-4)][Gal(b1-3)GlcNAc(b1-2)Man(a1-6)]Man(b1-4)GlcNAc(b1-4)GlcNAc
# Outline: as §1
# [23] = molecular target: Gal(b1-3)GlcNAc(b1-3)Gal(b1-4)Glc
# Outline: as §1
# [24] = molecular target: Gal(b1-3)[Fuc(a1-4)]GlcNAc(b1-2)Man(a1-3)[Gal(b1-3)[Fuc(a1-4)]GlcNAc(b1-2)Man(a1-6)]Man(b1-4)GlcNAc(b1-4)[Fuc(a1-6)]GlcNAc
# Outline: as §1
# [25] = molecular target: Gal(b1-4)Glc6S
# Outline: as §1
# [26] = molecular target: Gal(b1-4)GlcNAc(b1-2)Man(a1-3)[Gal(b1-4)GlcNAc(b1-2)Man(a1-6)][Gal(b1-4)GlcNAc(b1-4)]Man(b1-4)GlcNAc(b1-4)[Fuc(a1-6)]GlcNAc
# Outline: as §1
# [27] = molecular target: Gal(b1-4)GlcNAc(b1-3)Gal(b1-4)Glc
# Outline: as §1
# [28] = molecular target: Gal(b1-4)GlcNAc(b1-3)Gal(b1-4)GlcNAc(b1-2)[Gal(b1-4)GlcNAc(b1-3)Gal(b1-4)GlcNAc(b1-6)]Man(a1-6)[Gal(b1-4)GlcNAc(b1-3)Gal(b1-4)GlcNAc(b1-2)Man(a1-3)]Man(b1-4)GlcNAc(b1-4)[Fuc(a1-6)]GlcNAc
# Outline: as §1
# [29] = molecular target: Gal3S(b1-3)[Fuc(a1-4)]GlcNAc
# Outline: as §1
# [30] = molecular target: GlcNAc(a1-3)Gal(b1-4)GlcNAc
# Outline: as §1
# [31] = molecular target: GlcNAc(b1-2)Man(a1-3)[GlcNAc(b1-4)][GlcNAc(b1-2)Man(a1-6)]Man(b1-4)GlcNAc(b1-4)GlcNAc
# Outline: as §1
# [32] = molecular target: GlcNAc(b1-2)[GlcNAc(b1-4)]Man(a1-3)[GlcNAc(b1-2)Man(a1-6)]Man(b1-4)GlcNAc(b1-4)GlcNAc
# Outline: as §1
# [33] = molecular target: GlcNAc(b1-3)Gal(b1-4)Glc
# Outline: as §1
# [34] = molecular target: GlcNAc(b1-3)Gal(b1-4)GlcNAc(b1-3)Gal(b1-4)GlcNAc(b1-3)GalNAc
# Outline: as §1
# [35] = molecular target: GlcNAc(b1-3)Man
# Outline: as §1
# [36] = molecular target: GlcNAc(b1-3)[GlcNAc(b1-4)][GlcNAc(b1-6)]GlcNAc
# Outline: as §1
# [37] = molecular target: GlcNAc6S(b1-3)Gal(b1-4)GlcNAc
# Outline: as §1
# [38] = molecular target: Man(a1-2)Man(a1-2)Man(a1-3)Man
# Outline: as §1
# [39] = molecular target: Man(a1-2)Man(a1-2)Man(a1-6)[Man(a1-3)]Man
# Outline: as §1
# [40] = molecular target: Man(a1-2)Man(a1-3)Man
# Outline: as §1
# [41] = molecular target: Man(a1-2)Man(a1-3)[Man(a1-2)Man(a1-6)]Man
# Outline: as §1
# [42] = molecular target: Man(a1-2)Man(a1-3)[Man(a1-2)Man(a1-6)]Man(a1-6)[Man(a1-2)Man(a1-2)Man(a1-3)]Man
# Outline: as §1
# [43] = molecular target: Man(a1-2)Man(a1-6)[Man(a1-3)]Man(a1-6)[Man(a1-2)Man(a1-2)Man(a1-3)]Man
# Outline: as §1
# [44] = molecular target: Man(a1-2)Man(a1-6)[Man(a1-3)]Man(a1-6)[Man(a1-2)Man(a1-2)Man(a1-3)]Man(b1-4)GlcNAc(b1-4)GlcNAc
# Outline: as §1
# [45] = molecular target: Neu5Ac(a2-3)Gal(b1-3)[GlcNAc(b1-6)]GalNAc
# Outline: as §1
# [46] = molecular target: Neu5Ac(a2-3)Gal(b1-4)GlcNAc(b1-3)Gal(b1-4)GlcNAc(b1-2)Man(a1-3)[Neu5Ac(a2-3)Gal(b1-4)GlcNAc(b1-3)Gal(b1-4)GlcNAc(b1-2)Man(a1-6)]Man(b1-4)GlcNAc(b1-4)GlcNAc
# Outline: as §1
# [47] = molecular target: Neu5Ac(a2-3)Gal(b1-4)[Fuc(a1-3)]GlcNAc(b1-3)Gal(b1-4)GlcNAc
# Outline: as §1
# [48] = molecular target: Neu5Ac(a2-3)Gal6S(b1-4)[Fuc(a1-3)]GlcNAc
# Outline: as §1
# [49] = molecular target: Neu5Ac(a2-3)[GalNAc(b1-4)]Gal(b1-4)Glc
# Outline: as §1
# [50] = molecular target: Neu5Ac(a2-3)[Neu5Ac(a2-6)]GalNAc
# Outline: as §1
# [51] = molecular target: Neu5Ac(a2-6)Gal(b1-4)GlcNAc(b1-2)Man(a1-3)Man(b1-4)GlcNAc(b1-4)GlcNAc
# Outline: as §1
# [52] = molecular target: Neu5Ac(a2-6)Gal(b1-4)GlcNAc(b1-2)[Neu5Ac(a2-6)Gal(b1-4)GlcNAc(b1-4)]Man(a1-3)[GlcNAc(b1-4)][Neu5Ac(a2-6)Gal(b1-4)GlcNAc(b1-2)[Neu5Ac(a2-6)Gal(b1-4)GlcNAc(b1-6)]Man(a1-6)]Man(b1-4)GlcNAc(b1-4)GlcNAc
# Outline: as §1
# [53] = molecular target: Neu5Ac(a2-6)Gal(b1-4)GlcNAc(b1-3)Gal(b1-4)GlcNAc
# Outline: as §1
# [54] = molecular target: Neu5Ac(a2-6)Gal(b1-4)GlcNAc6S
# Outline: as §1
# [55] = molecular target: Neu5Ac(a2-6)GalNAc(b1-4)GlcNAc
# Outline: as §1
binder,measurement,setting,value
B1,glycan array binding signal (z-score),[1],1.35
same,glycan array binding signal (z-score),[2],-0.173
same,glycan array binding signal (z-score),[3],-0.169
same,glycan array binding signal (z-score),[4],-0.173
same,glycan array binding signal (z-score),[5],2.96
same,glycan array binding signal (z-score),[6],-0.094
same,glycan array binding signal (z-score),[7],-0.182
same,glycan array binding signal (z-score),[8],-0.057
same,glycan array binding signal (z-score),[9],-0.133
same,glycan array binding signal (z-score),[10],-0.175
same,glycan array binding signal (z-score),[11],2.27
same,glycan array binding signal (z-score),[12],-0.103
same,glycan array binding signal (z-score),[13],-0.157
same,glycan array binding signal (z-score),[14],-0.162
same,glycan array binding signal (z-score),[15],-0.17
same,glycan array binding signal (z-score),[16],2.13
same,glycan array binding signal (z-score),[17],-0.171
same,glycan array binding signal (z-score),[18],-0.173
same,glycan array binding signal (z-score),[19],-0.16
same,glycan array binding signal (z-score),[20],-0.172
same,glycan array binding signal (z-score),[21],-0.171
same,glycan array binding signal (z-score),[22],3.43
same,glycan array binding signal (z-score),[23],-0.181
same,glycan array binding signal (z-score),[24],4.1
same,glycan array binding signal (z-score),[25],-0.171
same,glycan array binding signal (z-score),[26],-0.182
same,glycan array binding signal (z-score),[27],-0.171
same,glycan array binding signal (z-score),[28],-0.139
same,glycan array binding signal (z-score),[29],-0.128
same,glycan array binding signal (z-score),[30],-0.172
same,glycan array binding signal (z-score),[31],-0.183
same,glycan array binding signal (z-score),[32],-0.178
same,glycan array binding signal (z-score),[33],-0.172
same,glycan array binding signal (z-score),[34],-0.173
same,glycan array binding signal (z-score),[35],-0.148
same,glycan array binding signal (z-score),[36],-0.166
same,glycan array binding signal (z-score),[37],-0.178
same,glycan array binding signal (z-score),[38],11.4
same,glycan array binding signal (z-score),[39],11.9
same,glycan array binding signal (z-score),[40],0.661
same,glycan array binding signal (z-score),[41],5.75
same,glycan array binding signal (z-score),[42],8.63
same,glycan array binding signal (z-score),[43],7.24
same,glycan array binding signal (z-score),[44],6.97
same,glycan array binding signal (z-score),[45],-0.136
same,glycan array binding signal (z-score),[46],-0.15
same,glycan array binding signal (z-score),[47],-0.12
same,glycan array binding signal (z-score),[48],-0.183
same,glycan array binding signal (z-score),[49],-0.177
same,glycan array binding signal (z-score),[50],-0.171
same,glycan array binding signal (z-score),[51],-0.15
same,glycan array binding signal (z-score),[52],-0.178
same,glycan array binding signal (z-score),[53],-0.181
same,glycan array binding signal (z-score),[54],-0.186
same,glycan array binding signal (z-score),[55],-0.179
